Experimental data published in PubChem BioAssay AID887 (National Center for Advancing Translational Sciences (NCATS), 2007).
Several values for one entry are separate records, joined by “and”; a condition that tells them apart may be missing. Equal entries are not always repeated. In all, about 74,000 compounds went through this assay and about 1,100 (1.5%) were called active. The inconclusive results got no clear call from the source; some entries with a clear call stand among them for comparison. Calls come from the whole dose curve; as a rule, active = well fitted inhibition curve with a large enough effect; inconclusive = small, poorly fitted or top-dose-only effect; inactive = no such curve, though single readings can be large or run the other way. Potencies of inconclusive entries are left out as doubtful fits. Some compounds were tested as several samples or in several runs, with calls that do not always agree.

What follows are compounds tested against Polyunsaturated fatty acid lipoxygenase ALOX15 (Homo sapiens) (UniProt P16050) (assay: qHTS Assay for Inhibitors of 15-hLO (15-human lipoxygenase)). Details: purified 15hLO-1, xylenol orange hydroperoxide absorbance; activity change, negative = inhibition: at 57.1 µM (top of the series) unless noted.
Sequence of UniProt P16050 (P16050 whole entry, looked up): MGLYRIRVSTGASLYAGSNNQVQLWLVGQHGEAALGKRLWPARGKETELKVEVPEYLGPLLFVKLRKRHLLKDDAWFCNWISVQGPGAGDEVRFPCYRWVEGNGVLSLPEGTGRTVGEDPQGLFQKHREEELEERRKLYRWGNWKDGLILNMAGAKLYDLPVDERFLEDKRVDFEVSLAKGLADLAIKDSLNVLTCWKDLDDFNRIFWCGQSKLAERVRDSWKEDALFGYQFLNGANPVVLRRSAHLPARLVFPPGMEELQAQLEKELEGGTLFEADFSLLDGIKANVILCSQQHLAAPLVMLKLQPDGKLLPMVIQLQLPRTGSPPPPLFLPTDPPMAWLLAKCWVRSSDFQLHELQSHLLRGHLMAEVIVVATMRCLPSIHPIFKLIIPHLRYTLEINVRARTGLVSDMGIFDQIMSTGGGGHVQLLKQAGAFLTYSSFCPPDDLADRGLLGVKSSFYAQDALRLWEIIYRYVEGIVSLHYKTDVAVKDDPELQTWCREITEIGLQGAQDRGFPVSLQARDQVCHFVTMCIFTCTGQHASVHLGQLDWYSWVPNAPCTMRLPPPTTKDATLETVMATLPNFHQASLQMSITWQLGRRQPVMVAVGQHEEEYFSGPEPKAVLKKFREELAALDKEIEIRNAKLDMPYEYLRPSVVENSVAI
Outline: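 Purified human 15hLO-1 (40 nM) in 25 mM Hepes pH 7.5, 0.01% Triton X-100, preincubated 15 min RT with compound, then 50 uM arachidonic acid for 6 min. Hydroperoxide read by ferrous/xylenol orange, 30 min; 573/405 nm absorbance ratio gave progress.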
% is set by controls: 0 for no effect and ±100 for the full control effect; potency is the fitted concentration of half-maximal effect; tags give direction and shape of the fitted curve.
Note: nearly all actives have a fitted effect of over 55% in size.

Row | Compound | Potency | activity change, negative = inhibition
1 | COc1cc(OC)cc(C(=O)NCCN2CCOCC2)c1 | active: 10 µM | 
2 | N#Cc1cc2cc3c(cc2nc1SCC(=O)OC1CCCCC1)OCO3 |  | inactive: -9.8%
3 | CN(C)c1ccccc1CN1CCCN(Cc2ccccc2N(C)C)C1c1ccncc1 |  | inactive: 11.8% [at 11.4 µM]
4 | N#CC(=C1SC=CS1)c1nc(-c2ccccc2)cs1 | inconclusive [inhibitor, single point] | 
5 | CC(C)=CCC/C(C)=C/CC/C(C)=C/CC/C(C)=C/CO |  | inactive: -5.43%
6 | CC(C)N1CCC2(CC1)N=C(c1ccc3c(c1)OCO3)CC(c1cc(Cl)ccc1O)N2 (configuration not stated) | inconclusive [inhibitor, single point] | 
7 | CCCCCCOc1ccc(/C(N)=N/O)cc1 | inconclusive [inhibitor, single point] | 
8 | COCC(=O)O[C@]1(CCN(C)CCCc2nc3ccccc3[nH]2)CCc2cc(F)ccc2[C@@H]1C(C)C | inconclusive [inhibitor, single point] | 
9 | N#C/C(=C/c1ccc(N2CCCCCC2)o1)c1ccc(F)cc1 | inconclusive [inhibitor, partial curve] | 
10 | CCOc1ccc2[nH]c(=O)c(C(c3nnnn3Cc3ccco3)N3CCC(C)CC3)cc2c1 (configuration not stated) | inconclusive [inhibitor, partial curve] | 
11 | CCOc1ccccc1C(=O)N1CCC(n2nnc3cc(C)ccc32)CC1 | inconclusive [inhibitor, partial curve] | 
12 | COc1ccc([C@@H]2[C@H]3CN(C(C)=O)CC=C3C(C#N)=C(N)C2(C#N)C#N)c2ccccc12 | active: 12.6 µM | 
13 | O=[N+]([O-])c1ccc2c(N=Nc3ccc4ccccc4c3O)c(O)cc(S(=O)(=O)O)c2c1 | active: 3.16 µM | 
14 | S=C(S)O[C@@H]1C[C@@H]2C[C@H]1[C@@H]1CCC[C@H]21 | inactive and active: 25.1 µM | 
15 | COC(=O)c1ccc(OC)c(CSc2nnc(COc3ccccc3)o2)c1 |  | inactive: -11.3%
16 | Cc1ccc(N2C(=O)C3C(C2=O)C2C=CC3C23CC3)cc1 (configuration not stated) |  | inactive: 5.5%
17 | Cc1ccc(-c2cc(-c3ccccc3)c(C#N)c(N)n2)o1 | inconclusive [inhibitor, partial curve] | 
18 | CCc1cc(C(=O)COc2ccccc2F)c(O)cc1O | active: 12.6 µM | 
19 | CS(=O)(=O)CCNCc1nc(-c2ccc3ncnc(Nc4ccc(OCc5cccc(F)c5)c(Cl)c4)c3c2)cs1 | inconclusive [inhibitor, partial curve] | 
20 | C=CCn1c(SCC(=O)Nc2nc3ccccc3s2)nnc1-c1ccccc1O | active: 25.1 µM | 
21 | Cc1sc2nc(CN3CCOCC3)nc(Oc3ccc(NC(=O)c4ccco4)cc3)c2c1C | inconclusive [inhibitor, partial curve] | 
22 | CCCCN(CC)C(=O)C1CCC(=O)N(c2ccc(OC)cc2)C1c1ccc(OC)c(OC)c1 (configuration not stated) | inconclusive [inhibitor, full curve, poor fit] | 
23 | Cc1ccc2nc(-c3cccc(NC(=O)c4ccco4)c3)[nH]c2c1 | inconclusive [inhibitor, single point] | 
24 | CCc1cc(/C(Cc2ccc3ccccc3n2)=N\O)c(O)cc1O | inconclusive [inhibitor, single point] | 
25 | Cc1ccc(-c2cc(-c3ccccc3Cl)c(C#N)c(N)n2)o1 | active: 7.94 µM | 
26 | Oc1ccccc1-c1cc(-c2ccccc2Cl)[nH]n1 | active: 12.6 µM | 

Row | Compound | Potency | activity change, negative = inhibition
27 | Cc1nc2nc(SCC(=O)NCc3ccco3)nn2c(C)c1Cc1c(F)cccc1Cl |  | inactive: -14.2%
28 | Fc1cc2nccnc2cc1N1CCSCC1 | inconclusive [inhibitor, single point] | 
29 | CCN(CC)S(=O)(=O)c1ccc2[nH]cc(C(=O)NCCC3=CCCCC3)c(=O)c2c1 | inconclusive [inhibitor, partial curve] | 
30 | c1ccc(-c2ccccc2-c2nc(-c3cccnc3)no2)cc1 |  | inactive: 0.0075%
31 | c1cn2cc(-c3ccc4c(c3)OCO4)nc2s1 | inconclusive [inhibitor, single point] | 
32 | FC(F)(F)c1cccc(OCCOCCn2cncn2)c1 | inconclusive [inhibitor, partial curve] | 
33 | c1ccc(-c2ccc(-c3ccccn3)nn2)nc1 |  | inactive: 33.8%
34 | O=C(Nc1ccccc1)N1CCN(c2nc3ccccc3s2)CC1 | inconclusive [inhibitor, partial curve] | 
35 | N#CCSc1nc2ccc(N3CCCCC3)cc2c(=O)n1Cc1ccccc1 | inconclusive [inhibitor, partial curve] | 
36 | CCOC(=O)c1c(NC(=O)c2nc3n(n2)C(C(F)F)CC(C)N3)sc2c1CCCC2 (configuration not stated) | inconclusive [inhibitor, partial curve] | 
37 | CCOC(=O)N1CCN(C(=O)CS(=O)Cc2nc(-c3ccc(C)cc3)oc2C)CC1 (configuration not stated) | inconclusive [inhibitor, single point] | 
38 | COc1ccc(OC)c(NC2c3ncccc3C(=O)N2Cc2ccco2)c1 (configuration not stated) | inconclusive [inhibitor, single point] | 
39 | N#Cc1cccc(-c2nc(Nc3ccccc3)c3ccccc3n2)c1 |  | inactive: -14.5%
40 | Cc1ccc(CCNC(=O)c2coc3nc4ccccc4nc23)cc1 |  | inactive: -6.04%
41 | COc1cccc(=O)c2c(C)n(C)c(C)c12 | inconclusive [inhibitor, single point] | 
42 | Cn1cccc1C(=O)N1CCC2(CCCN(c3ccccn3)C2)CC1 |  | inactive: -15%
43 | CCOC(=O)c1ccc(NC(=O)CSc2nc3c(c(=O)n2CC)SC(C)C3)cc1 (configuration not stated) | inconclusive [inhibitor, full curve, poor fit] | 
44 | Cc1nc(-c2cccc(S(=O)(=O)N3CCOCC3)c2)cs1 | inconclusive [inhibitor, single point] | 
45 | CCN(CC)c1nc(N(CC)CC)[nH]c(=O)n1 | active: 12.6 µM | 
46 | Fc1ccc(-n2c(Cc3ccccc3)nnc2SCc2nc(-c3cccs3)no2)cc1 |  | inactive: -7.12%
47 | CC1(C)Cc2ccccc2C2CC(O)C(=O)N21 (configuration not stated) | inconclusive [inhibitor, partial curve] | 
48 | Cc1ccc(NC(=O)c2cc(-c3ccc(C)o3)nc3ccccc23)nc1 | inconclusive [inhibitor, partial curve] | 
49 | CCOC(=O)c1sc(NC(=O)CSc2nnc(-c3ccco3)n2CC)c(C(=O)OCC)c1C | active: 6.31 µM | 
50 | CCN1C(=O)/C(=C\N2CCCCCC2)SC1=S | inconclusive [inhibitor, single point] | 
51 | CCOc1cc(N2CCOCC2)c(OCC)cc1NC(=O)Cc1cn2ccsc2n1 | inconclusive [inhibitor, partial curve] | 
52 | N#Cc1cc2[nH]c(=O)c(=O)[nH]c2cc1[N+](=O)[O-] | inconclusive [inhibitor, single point] | 

Row | Compound | Potency | activity change, negative = inhibition
53 | Cn1c(=O)[nH]c(=O)c2c1nc(Br)n2CCCSc1nc2ccccc2o1 |  | inactive: -0.999%
54 | Cc1cccc2sc(NC(=O)Cn3cccc3)nc12 | inconclusive [inhibitor, single point] | 
55 | FC(F)(F)c1ccccc1-c1cc(NCCN2CCOCC2)ncn1 | inconclusive [inhibitor, partial curve] | 
56 | Cc1nn2c(N)csc2nc1=O |  | inactive: -6.72%
57 | N=c1n(Cc2ccccc2)c2ccccc2n1CC(O)COc1ccccc1 (configuration not stated) | inconclusive [inhibitor, full curve] | 
58 | CC(C)OCCCN1CN(S(=O)(=O)c2ccccc2)c2nc3ccccc3nc21 | inconclusive [inhibitor, single point] | 
59 | CCOc1ccccc1C(=O)Nc1nccs1 | active: 7.94 µM | 
60 | O=c1c2ccccc2nc(SCc2ccccc2)n1Cc1ccco1 | inconclusive [inhibitor, full curve] | 
61 | Oc1ccc2c(c1)OCC1(O)Cc3cc(O)c(O)cc3C21 (configuration not stated) | inconclusive [inhibitor, partial curve] | 
62 | COc1ccc(C(=S)N2CCCC2)cc1C | inconclusive [inhibitor, single point] | 
63 | COC(=O)c1ccc(CSc2nc(C(F)(F)F)c3c(c2C#N)CCC3)o1 | active: 20 µM | 
64 | O=C(c1cc(-c2ccc(O)cc2)on1)N1CCc2ccccc2C1 | active: 15.8 µM | 
65 | COc1cccc(-c2nc(NCc3cnc(C)cn3)c3ccccc3n2)c1 |  | inactive: -0.821%
66 | c1ccc(N2CCN(Cc3nc4ccccc4[nH]3)CC2)nc1 | inconclusive [inhibitor, single point] | 
67 | CCSc1nnc(NC(=O)c2ccccn2)s1 |  | inactive: 96.8%
68 | Cc1cc(C(=O)Nc2ccc(N3CCOCC3)cc2)c2ccccc2n1 |  | inactive: 1.99%
69 | Nc1nc2sc3c(c2cc1C(=O)N1CCOCC1)CCCC3 | active: 3.16 µM | 
70 | O=c1c(/C=N/O)c(Nc2ccccc2)nc2ccccn12 | inconclusive [inhibitor, single point] | 
71 | COC(=O)Cc1c(C)nc2nc(-c3cccnc3)[nH]n2c1=O |  | inactive: 0.797%
72 | COc1ccc(-c2ncc3ccccn23)cc1 |  | inactive: -5.35%
73 | COc1ccc(-c2nc3cnc(OC)nc3n(C3CC3)c2=O)cc1 |  | inactive: -10.1%
74 | O=C(c1cnccn1)N1CCc2ccccc21 | active: 15.8 µM | 
75 | COc1cc(C(=O)NCc2ccc(-c3nc4ccccc4o3)cc2)cc(OC)c1OC |  | inactive: -18.2%
76 | COC(=O)c1sccc1NC(=O)c1ccc(OC)cc1 |  | inactive: 0.669%
77 | OCCNc1nc(N2CCN(Cc3ccccc3)CC2)nc2ccccc12 | inconclusive [inhibitor, single point] | 
